Assays:
FGFR3 S249C = biological target: T1, FGFR3 S249C (Homo sapiens, UniProt P22607, S249C); assay: Western blot, FGFR3 receptor dimerization in UMUC14 cells; assay type: cell-based; settings: 33 nM, 3 hours, non-reducing SDS-PAGE
T1 construct: UMUC14 cells, which endogenously express the FGFR3 S249C mutation; host or cells: UMUC14
Protocol: For receptor dimerization assessments, UMUC14 bladder cancer cells or BaF3 cells were seeded in 6 well tissue culture plate (Corning) in complete medium (MEM medium with 10% FBS, 1% non-essential amino acids, Glutamine, Pen/Strep) and cultured overnight at 37° C. with 5% CO2. Cells were then serum starved overnight in starvation medium (MEM medium with 0.5% FBS, Pen/Strep) followed by antibody treatment for 3 hours at indicated concentrations. Equal amounts of cell lysates were analyzed by either reducing or non-reducing SDS-PAGE. Membranes were blotted with anti-FGFR3 primary antibody (Santa Cruz) and developed with SuperSignal West Pico substrate (Pierce) and luminescence images were captured with a C300 imager (Azure Biosystems).
To gain insight into the mechanisms of antiproliferative activity of BiP063N2, effects of antibodies on FGFR3 receptor dimerization, degradation, and downstream signaling were evaluated by western blot as described in Section 8.1.5. UMUC14 cells, which endogenously express the FGFR3 S249C mutation, were treated with indicated antibodies at 33 nM for 3 hours. After treatment, FGFR3 monomers and disulfide-linked dimers were separated via a non-reducing SDS-polyacrylamide gel (FIG. 6A, top). The mobilities of the monomeric and dimeric FGFR3 are indicated.

[1] = test system: MAPK phosphorylation in BaF3 cells expressing Y375C hFGFR3b; assay: Western blot, FGF1/heparin induced MAPK phosphorylation in BaF3 Y375C hFGFR3b cells; assay type: cell-based; settings: 100 nM antibody overnight, 100 nM FGF1 and 10 ug/ml heparin 15 min
Protocol: To evaluate receptor phosphorylation and downstream signaling, cells were serum starved overnight in the presence or absence of indicated antibodies followed by ligand (100 ng/ml human FGF1 and 10 μg/ml heparin) stimulation for 15 min at 37° C. Equal amounts of cell lysates were analyzed by SDS-PAGE. Blots were incubated with pMAPK, MAPK or actin antibodies followed by incubation with HRP secondary antibody. For FGFR3 phosphorylation, equal amounts of cell lysates were incubated with pY100 Sepharose beads overnight and non-specific binding was removed by washes with lysis buffer. Immunoprecipitated proteins were analyzed by reducing or non-reducing SDS-PAGE and blotted with FGFR3 antibody.

FGFR3 [2] = assay: Agonist activity of parental anti-FGFR3 antibodies (Table 1); assay type: cell-based; settings: parental anti-FGFR3 antibody
human FGFR3c (hFGFR3c) = biological target: T2, human FGFR3c (hFGFR3c) (Homo sapiens, UniProt P22607); assay: Biacore binding to human FGFR3c; settings: 25 C
T2 construct: biotinylated human or mouse FGFR3b-ecto.mmH, human FGFR3c-ecto.mmH or Fel-d 1.mmH; mmh (C)
T2 sequence (P22607 23-375 limits assumed): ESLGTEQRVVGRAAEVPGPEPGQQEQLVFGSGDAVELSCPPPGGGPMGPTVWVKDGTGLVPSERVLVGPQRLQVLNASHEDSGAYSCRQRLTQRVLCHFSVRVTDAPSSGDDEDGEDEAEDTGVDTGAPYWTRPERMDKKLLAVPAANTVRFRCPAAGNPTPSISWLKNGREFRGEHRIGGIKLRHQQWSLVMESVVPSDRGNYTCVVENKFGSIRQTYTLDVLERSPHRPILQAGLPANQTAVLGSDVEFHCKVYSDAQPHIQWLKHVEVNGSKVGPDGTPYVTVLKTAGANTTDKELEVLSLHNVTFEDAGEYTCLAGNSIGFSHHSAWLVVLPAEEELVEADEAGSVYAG
Protocol: Affinity and mechanism of action of binding of anti-FGFR3 antibodies to FGFR3 isoforms were determined by Biacore analysis. In brief, in-house generated monoclonal anti-human Fc antibody was immobilized on the surface of a CM-5 sensor chip. Different concentrations of FGFR3 antibodies were injected at 50 μL/min for 4 min and the assay was performed at 25° C. The mAb binding response was monitored and, for low affinity receptors, steady-state binding equilibrium was calculated. Kinetic association (ka) and dissociation (kd) rate constants were determined by processing and fitting the data to a 1:1 binding model using Scrubber 2.0 curve fitting software. Binding dissociation equilibrium constants (KD) and dissociative half-lives (t1/2) were calculated from the kinetic rate constants using the formula: KD (M)=kd/ka; and t1/2 (min)=(ln2/(60*kd). Some KD values were derived using the steady state equilibrium dissociation constant; When no KD values could be derived, it was marked as NB (no binding observed) or IC (inconclusive affinity determination due to low specific RU signal).

[3] = test system: BaF3 cells expressing S248C hFGFR3b; assay: BaF3 cell viability, S248C hFGFR3b; assay type: cell-based; settings: 1 nM FGF1 and 5 ug/ml heparin
From the text: cDNA expressing FGFR3 mutants (S249C, S248C, Y375C, V555M, V555L, S249C+V555M, or S249C+V555L) were synthesized and cloned into pLVX Lenti-viral vector (Thermo Fisher). Viral particles were generated by lipofectamine transfection of LentiX 293T cells using Lenti-X packaging single shots following manufacturer's protocol (Clontech/Takara) and concentrated using Lenti-X concentrator and titer determined using Lenti-X p24 rapid titer kit (Clontech/Takara). BaF3 cells were transduced with virus at ~0.3 MOI. Expression of FGFR3 receptors was confirmed by FACS analysis and western blot.
For cell proliferation assays, engineered BaF3/hFGFR3 cells grown in complete medium were washed and plated in IL-3-free culture media±5 μg/ml heparin and 1 nM human FGF1. Cells were plated out at 1×10^5 cells/well into 96-well plates, followed by the addition of 1:3 serially diluted antibodies as indicated in figures. After addition of antibodies, cells were incubated at 37° C. for 72 h followed by the addition of CellTiter-Glo™ (Promega) reagent. The luminescent signal was detected by Envision plate reader (PerkinElmer). Data was analyzed using Prism software (GraphPad).
Next, cell viability was assessed using BaF3 cells expressing S248C hFGFR3b, cultured in a medium with 1 nM FGF1 and 5 μg/ml heparin in the absence (control) or presence of mAb063 or BiP063N2 as described in Section 8.1.4.

FGFR3 [4] = biological target: T3, FGFR3 (Homo sapiens, UniProt P22607, S249C); assay: Western blot, FGFR3 receptor degradation in UMUC14 cells; assay type: cell-based; settings: 33 nM, 16 hrs
T3 construct: UMUC14 cells, which endogenously express the FGFR3 S249C mutation; host or cells: UMUC14
T3 sequence (P22607 23-808 isoform P22607-2 S249C limits assumed): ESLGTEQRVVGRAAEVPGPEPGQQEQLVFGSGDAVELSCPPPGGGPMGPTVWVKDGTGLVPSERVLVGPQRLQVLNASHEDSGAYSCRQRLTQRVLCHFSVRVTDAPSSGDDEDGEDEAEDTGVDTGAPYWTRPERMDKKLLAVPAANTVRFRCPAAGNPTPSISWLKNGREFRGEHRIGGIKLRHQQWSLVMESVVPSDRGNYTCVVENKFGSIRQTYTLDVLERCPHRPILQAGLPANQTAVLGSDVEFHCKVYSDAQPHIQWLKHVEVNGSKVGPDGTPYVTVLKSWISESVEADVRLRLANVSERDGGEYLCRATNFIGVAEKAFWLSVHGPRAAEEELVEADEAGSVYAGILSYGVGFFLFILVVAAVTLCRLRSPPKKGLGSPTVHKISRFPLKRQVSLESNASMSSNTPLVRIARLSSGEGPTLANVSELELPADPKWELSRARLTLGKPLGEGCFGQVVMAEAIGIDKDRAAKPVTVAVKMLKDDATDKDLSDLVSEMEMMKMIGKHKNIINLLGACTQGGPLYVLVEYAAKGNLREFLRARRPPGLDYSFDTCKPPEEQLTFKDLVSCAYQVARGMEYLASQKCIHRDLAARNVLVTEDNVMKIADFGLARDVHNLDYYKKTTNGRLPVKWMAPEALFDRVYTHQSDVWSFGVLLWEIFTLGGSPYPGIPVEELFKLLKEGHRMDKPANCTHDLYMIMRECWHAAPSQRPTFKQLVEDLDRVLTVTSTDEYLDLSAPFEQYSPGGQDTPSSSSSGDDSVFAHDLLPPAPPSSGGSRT
Protocol: For receptor degradation assessments, cells were treated with 33 nM of a designated antibody for 16 hours. Cells were then washed with pre-chilled PBS and collected in lysis buffer containing protease inhibitors (Cell Signaling Technology). Equal amounts of cell lysate were loaded on either reducing or non-reducing SDS-PAGE for protein separation. PVDF membranes with transferred proteins were blocked in tris-buffered saline (TBS) containing 5% nonfat dry milk and 0.5% Tween 20 and incubated overnight with anti-FGFR3 primary antibody (Santa Cruz). Membranes were washed three times with TBST, incubated with HRP-conjugated goat anti-rabbit secondary antibody (Seracare), and developed with SuperSignal West chemiluminescent substrate (Thermo Scientific). Images were captured with a C300 imager (Azure Biosystems).
To assess the effect of antibody on receptor degradation, UMUC14 cells were treated with indicated antibodies at 33 nM for 16 hrs. Total FGFR3 receptor levels were analyzed by western blot.

T1 sequence (P22607 23-808 isoform P22607-2 S249C limits assumed): as above

B1: mAb063: parental anti-FGFR3 antibody of BiP063N2, inhibitory; anchor mAb (antibody)
heavy: QVQLQESGPGLVKPSETLSLTCTVSGDSINSYFWSWIRQLPGKELEWIGHIYSSGSTRYNPSLQSRVTISIDTSKNQFSLKLSSVTAADTAVYYCARGASAVDYWGQGTLVTVSSASTKGPSVFPLAPCSRSTSESTAALGCLVKDYFPEPVTVSWNSGALTSGVHTFPAVLQSSGLYSLSSVVTVPSSSLGTKTYTCNVDHKPSNTKVDKRV[human IgG4 Fc with S228P (EU numbers) cut from this listing]
light: EIVLTQSPGTLSLSPGERATLSCRTSQSISSGYLAWYQQKPGQAPRLLIYGASRRATGIPDRFSGSGSGTDFTLTISRLEPEDFVVYYCQQYGSSPYTFGQGTKLEIKRTVAAPSVFIFPPSDEQLKSGTASVVCLLNNFYPREAKVQWKVDNALQSGNSQESVTEQDSKDSTYSLSSTLTLSKADYEKHKVYACEVTHQGLSSPVTKSFNRGEC
FGFR3 S249C receptor dimerization (FGFR3 S249C): potently inhibited receptor dimer formation | pMAPK after FGF1/heparin stimulation, Y375C hFGFR3b [1]: small increase in pMAPK levels | Agonist Activity (second figure of the cell, percent) (FGFR3 [2]): 16.1% | binding to monomeric human FGFR3c (human FGFR3c (hFGFR3c)): not detected | cell viability of BaF3 cells expressing S248C hFGFR3b [3]: diminished cell viability in a dose-dependent manner | FGFR3 receptor degradation (FGFR3 [4]): did not induce receptor degradation
